Data: PubChem BioAssay AID624173 (National Center for Advancing Translational Sciences (NCATS), 2012)
The campaign covered roughly 410,000 compounds. About 490 (0.12%) were called active. Inconclusive means that the source gave no clear call. Such entries were picked first, then a sample of the others. The call rests on the fitted dose curve; in most records, active means well fitted inhibition curve with a large enough effect; inconclusive means small, poorly fitted or top-dose-only effect; inactive means flat fitted curve, though single readings scatter. Where the call is inconclusive, the potency comes from a doubtful curve fit.

target: pyruvate kinase (Trypanosoma brucei) (UniProt Q57TT1); assay: qHTS of Trypanosoma Brucei Inhibitors; settings: TbPYK enzyme, Kinase-Glo Plus ATP luminescence, 45 min; series mostly up to 76.8 µM; activity, negative = inhibition: at the top concentration; further: nearly all actives have a fitted effect of over 50% in size
Procedure, shortened: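 Enzyme and substrate buffer are dispensed first and compound is pin-transferred. ADP at 130 uM final then starts the reaction, which runs 45 min at room temperature. Detection reagent is added for 10 min before luminescence is imaged.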
On the % scale 0 is the no-effect control and ±100 the full control effect; potency means the concentration at half of the fitted maximal effect; tags describe the fitted curve by direction and shape.

Compound	activity, negative = inhibition	Potency
O=C(NCc1ccco1)C1CC(c2c(Cl)cccc2Cl)=NO1 (stereo not given)	inactive: -6.34%	
COC(=O)CC1=NN(c2ccccc2)C(=O)/C1=C\c1ccc(OC)cc1		inconclusive: 25.1 µM [inhibitor, partial curve, poor fit]
COc1ccc(CCNC(=O)Cn2c([N+](=O)[O-])cnc2C)cc1OC	inactive: -4.96%	
Cc1cccc(NC(=O)c2cc(S(=O)(=O)N3CCOCC3)cn2C)c1C	inactive: -3.92%	
S=C(Nc1ccc2nsnc2c1)N1CCCCC1	inactive: -21.6%	
Cc1ccc(-c2nc3n(n2)Cc2ccccc2-3)cc1	inactive: -20.9%	
C=CCNC(=O)c1ccc2c3n(nc2c1)-c1ccccc1CO3		inconclusive: 22.4 µM [inhibitor, partial curve]
Cc1cc(C)c(C)c(S(=O)(=O)ON2C(=O)c3ccccc3C2=O)c1C		inconclusive: 25.1 µM [inhibitor, partial curve, poor fit]
CCOC(=O)C1CCCN(Cc2nc3ccc([N+](=O)[O-])cc3c(=O)n2-c2ccc(OC)cc2OC)C1 (stereo not given)	inactive: -2.41%	
Cc1ccc2nc(-c3ccccc3)nn2c1		inconclusive: 39.8 µM [inhibitor, partial curve, poor fit]
NC(=O)c1c(NC(=O)c2ccc(F)cc2)sc2c1CCC2	inactive: 0.331%	
Cc1ccc(NC(=O)c2ncoc2-c2ccco2)cc1Cl	inactive: -10.3%	
COc1ccccc1-n1c(O)c(/C=N/NC(=S)Nc2ccccc2)c(=O)[nH]c1=S		inconclusive: 7.94 µM [inhibitor, partial curve]
COC(=O)c1ccc2c(c1)C(C)(C)C(/C=C/c1ccc(O)cc1)=[N+]2C		inconclusive: 25.1 µM [inhibitor, partial curve, poor fit]
CCOC(=O)c1c(-c2ccccc2)csc1NC(=O)c1cc(-c2ccccc2OC)on1		inconclusive: 31.6 µM [inhibitor, partial curve, poor fit]
O=S(=O)(O)CC(S)CS (stereo not given)		inconclusive: 10 µM [inhibitor, full curve]
COc1ccccc1N1C(=O)C=C(Sc2nc(C)cc(C)n2)C1=O		active: 5.01 µM
FC(F)(F)c1ccc2c(c1)[nH]c(=S)n2C1CC1		inconclusive: 12.6 µM [inhibitor, partial curve]
O=C(NCC1CCCO1)c1sc(=S)n2c1[nH]c(=O)c1ccc(C(=O)N3CCCCC3)cc12 (stereo not given)		inconclusive: 35.5 µM [inhibitor, partial curve, poor fit]
N#Cc1ccsc1NC(=O)C1CCCN1S(=O)(=O)c1cccs1 (stereo not given)	inactive: 2.82%	
O=C1NC(=S)N/C1=C/c1cc([N+](=O)[O-])ccc1O		inconclusive: 39.8 µM [inhibitor, partial curve, poor fit]
Cc1ccccc1C(=O)O/N=C(\N)c1ccccc1		inconclusive: 28.2 µM [inhibitor, partial curve]
COc1ccc2c(c1)Cc1sc(NC(=O)c3ccco3)nc1-2	inactive: -17.9%	
Cc1ccc(C(=O)/C=C/C(=O)O)cc1		inconclusive: 50.1 µM [inhibitor, single point]

Compound	activity, negative = inhibition	Potency
COc1ccc(N/C=C/C(=O)c2ccccc2)cc1		inconclusive: 22.4 µM [inhibitor, single point]
Cn1c(Cn2c3ccccc3c3ccccc32)n[nH]c1=S		inconclusive: 5.01 µM [inhibitor, partial curve, poor fit]
CCCc1[nH]n(-c2ccc(F)cc2)c(=O)c1C=NCC1CCCO1 (stereo not given)	inactive: -6.57%	
O=C1NC(=O)N(Cc2ccccc2Cl)C(=O)/C1=C/c1cccs1		inconclusive: 50.1 µM [inhibitor, single point]
Cc1ccc(NC(=S)NNc2ccc([N+](=O)[O-])cc2S(=O)(=O)Nc2ccccc2C(=O)O)cc1C		inconclusive: 35.5 µM [inhibitor, partial curve, poor fit]
CCNC(=O)c1ccc2c(c1)C1C3CCC(C3)C1C(c1ccccc1)N2 (stereo not given)	inactive: 16.1%	
Cc1ccc(S(=O)(=O)NCCc2cn3nc(C)c(C)nc3n2)cc1C	inactive: -0.179%	
Cc1ccc(-c2n[nH]c(=S)n2C)cc1Cl		inconclusive: 14.1 µM [inhibitor, partial curve]
CCOc1ccc2nc(N3CCCC(C(=O)Nc4ccc(OC)c(Cl)c4)C3)sc2c1 (stereo not given)	inactive: -4.35%	
CCOC(=O)c1cc2c(=O)n3ccccc3nc2n(Cc2ccco2)c1=NC(=O)c1cccc(F)c1	inactive: 0.352%	
CCc1cc(=S)n2c([nH]c3ccccc32)c1C#N		inconclusive: 31.6 µM [inhibitor, partial curve]
CCOc1cc(CNc2ccc(N3CCCC3)cc2)cc(Cl)c1OC		inconclusive: 28.2 µM [inhibitor, partial curve, poor fit]
O=C(NCc1ccco1)C1CC(=O)N(c2ccc(O)cc2)C1 (stereo not given)		inconclusive: 50.1 µM [inhibitor, single point]
O=C(Cc1ccc(Cl)cc1Cl)Nc1cccc(S(=O)(=O)Nc2ccccc2F)c1		inconclusive: 0.794 µM [inhibitor, full curve, poor fit]
CCCCC(=O)NNC(=S)NC(=O)c1ccc([N+](=O)[O-])cc1		inconclusive: 28.2 µM [inhibitor, partial curve, poor fit]
Oc1ccc(-c2cn3ccccc3n2)cc1O		inconclusive: 35.5 µM [inhibitor, partial curve, poor fit]
NC1=NC(=O)/C(=C/c2cn(Cc3ccccc3)c3ccccc23)S1		inconclusive: 28.2 µM [inhibitor, partial curve]
CCOC(=O)C1CCN(C(=O)CSc2ccccc2)CC1	inactive: -16.8%	
CCC(C)N1C(=O)/C(=C\c2cc3c4c(c2)CCCN4CCC3)C(=O)NC1=S (stereo not given)		inconclusive: 39.8 µM [inhibitor, single point]
S=c1[nH]nc(-c2cc(-c3ccccc3)n[nH]2)n1/N=C/c1ccccc1		inconclusive: 20 µM [inhibitor, partial curve, poor fit]
COc1cc(OC)cc(-c2n[nH]c(=S)n2-c2cc(OC)ccc2OC)c1		inconclusive: 5.01 µM [inhibitor, partial curve, poor fit]
CCN1C(=NCc2cc(OC)c(OC)c(OC)c2)N[C@@H](c2ccccc2)C(C(=O)OC)=C1C		inconclusive: 39.8 µM [inhibitor, partial curve, poor fit]
Cc1cc(SCNC(=O)c2ccccc2)ncn1	inactive: -13.7%	
COc1cc(/C=C2\CC/C(=C\c3cc(OC)c(O)c(OC)c3)C2=O)cc(OC)c1O		inconclusive: 28.2 µM [inhibitor, partial curve]

Compound	activity, negative = inhibition	Potency
CCOc1ccc(Cc2c(C)[nH]c3ccc(C(=O)O)cc3c2=S)cc1		inconclusive: 6.31 µM [inhibitor, partial curve]
N=c1oc2ccccc2cc1C(=O)N/N=C/c1ccccc1		inconclusive: 28.2 µM [inhibitor, single point]
Cc1cccc(/C=N/n2c(C3CCCCC3)n[nH]c2=S)c1		inconclusive: 2.82 µM [inhibitor, full curve]
Cc1ccc(-n2c(-c3ccncc3)n[nH]c2=S)cc1		inconclusive: 12.6 µM [inhibitor, partial curve, poor fit]
O=C1c2ccccc2-c2nnc(-c3ccc(F)cc3)cc21		inconclusive: 20 µM [inhibitor, partial curve]
CSc1sc(-c2n[nH]c(=S)n2C)c2c1C=CCC2		inconclusive: 3.55 µM [inhibitor, full curve, poor fit]
COc1cccc2cc(C(=O)OCc3ccccc3)c(=O)oc12	inactive: -8.59%	
CCOc1ccc(/C=C/C(=O)Nc2sc3c(c2C(=O)OC)C(C(=O)OC)CC3)cc1 (stereo not given)		inconclusive: 4.47 µM [inhibitor, full curve]
CCCn1ccc2c(OCC(=O)Nc3cc(C)ccc3C)cccc2c1=O	inactive: -0.686%	
CN(C)c1ccc(/C=N/NC(=O)c2ccccn2)cc1		inconclusive: 31.6 µM [inhibitor, single point]
N/C(=N\OC(=O)c1ccc2ccccc2c1)c1ccccn1		inconclusive: 28.2 µM [inhibitor, partial curve]
Cn1c(=O)c(C(=O)NNC(=O)c2ccccc2Cl)c(O)c2ccccc21	inactive: -22.2%	
O=C1ON=C(c2ccccc2)/C1=C/c1ccc(O)cc1		inconclusive: 44.7 µM [inhibitor, single point]
O=C(O)C1Nc2c(C(=O)N3CCOCC3)cccc2C2C=CCC12 (stereo not given)		inconclusive: 10 µM [inhibitor, partial curve]
CCC1(c2ccccc2)NC(=O)N(CC(=O)Nc2ccc(N3CCCC3)cc2C)C1=O (stereo not given)		inconclusive: 50.1 µM [inhibitor, single point]
Cc1ccc(NC2CCCN(C(=O)c3ccc(F)cc3)C2)cc1C (stereo not given)		inconclusive: 31.6 µM [inhibitor, partial curve, poor fit]
COc1ccc2[nH]c3c(=O)n(Cc4ccc(C(=O)N5CCCC5)cc4)c(=S)[nH]c3c2c1		inconclusive: 50.1 µM [inhibitor, partial curve, poor fit]
COc1ccc(-c2n[nH]c(=S)n2/N=C/c2cccn2C)cc1		active: 2.51 µM
CCN(CC)C(=O)CSc1nc(C)cc(-c2cccs2)c1C#N		inconclusive: 50.1 µM [inhibitor, single point]
COc1ccc(C(=O)N2CC3(C)CC2CC(C)(C)C3)cc1OC (stereo not given)		inconclusive: 28.2 µM [inhibitor, single point]
O=C(COc1ncnc2cc(Cl)ccc12)c1ccc2c(c1)OCCO2	inactive: -4.26%	
O=C(c1cccnc1)N(c1cc2sc(=O)oc2c2ccccc12)S(=O)(=O)c1ccccc1		inconclusive: 50.1 µM [inhibitor, single point]
